Laboratory results: the RNAGym collection of RNA variant scans (doi:10.1073/pnas.2313332121)
Variants at the background level are over-represented here.

B1: TPR 5TU (parent)
chain: GGAUCUUCUCGAUCUAACAAAAAAGACAAAUCUGCCACAAAGCUUGAGAGCAUCUUCGGAUGCAGAGGCGGCAGCCUUCGGUGGCGCGAUAGCGCCAACGUUCUCAACUAUGACACGCAAAACGCGUGCUCCGUUGAAUGGAGUUUAUCAUG

Variants of: B1
Assay: polymerase ribozyme fitness, log enrichment relative to wild type (log ratio); higher = more active; in vitro selection for triplet polymerase activity
Summary of the method: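 Fitness is a logarithmic measure of how a genotype enriched relative to the wild type, with replicate averages weighted by inverse variance. The logarithm uses base 2, and enrichment came from Illumina sequencing of input and output libraries. Those libraries were PCR-built, transcribed mutants of each subunit of a heterodimeric triplet polymerase ribozyme, passed through one triplicate in vitro selection round that included frozen incubation at −7 °C, gel excision of extended constructs and streptavidin-bead capture. Genotypes were kept only if they had ≥10 input reads and ≥1 read per output.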

Variant | polymerase ribozyme fitness (log ratio)
A20C A22G A37U C69U A98G G126U G140C | ≤ -4.2
A20U A52C C93U U101G C131G | ≤ -4.2
A20U G62C G94A | -3.04
A20U A49C | ≤ -4.2
A20G C51U G58A C85U A106U | -2.76
A20C C54U G70C C93A G143U | ≤ -4.2
A20G U44C A49U G81C C87U C103G | ≤ -4.2
A20U A30G A41G U45A U53G C96G | ≤ -4.2
A20G A24G U53A C72G C85U | ≤ -4.2
A21C A28U U33G G58U A66G C85G G92A C95G A110U | ≤ -4.2
A20U A21C C54G G70A G92C C114A G143U | ≤ -4.2
A20G C36A | ≤ -4.2
A20C C54U U56G G68C C87U A138U | ≤ -4.2
A20G U55G C116U A121C | -0.705
A20G A41U C51A U56A C76U G86U G88U A91U C123A U144A C149A | ≤ -4.2
A20G A22U A28U G94C C108U | ≤ -4.2
A20U A23C A47G U77G G84C A97U C118U | ≤ -4.2
A20C A41U G59A A60U C69G G86A C103G | ≤ -4.2
A20U A24C C38A G62C G94C A137U | ≤ -4.2
A21C A26C U56A G68C C114G C123A | ≤ -4.2
A21C A28U C85G U127A U130G G152U | ≤ -4.2
A20C U61G | -1.36
A20U C51A G86U A106G | ≤ -4.2
A20C C43U C85G | ≤ -4.2

Variant | polymerase ribozyme fitness (log ratio)
A20C G68C A98U C99G G140U | ≤ -4.2
A19U U56A A60G C75U C93A C118U U146A | -3.86
A20U A60U G71A C93A A150G | ≤ -4.2
A20U A23U A41C A47C C76G C79G C96A C108A C132U | ≤ -4.2
A20C C32G G59C G68C C87A U109G | ≤ -4.2
A20G G83U A91G C96A C149A | ≤ -4.2
A20C G92U A107G G152U | ≤ -4.2
A20C A23C A47C C93U | ≤ -4.2
A20G G83A A107C G117A G136A | ≤ -4.2
A20C G46C A49C A66U G68U G84A G133A | ≤ -4.2
A20G G88A G92A G136A | ≤ -4.2
A20C G25C C85U G117A G141C | ≤ -4.2
A20C C36U A47C | -1.91
A20C U45A G59C G92C C105U G117U U135C U139C G143A | ≤ -4.2
A20U C32A C99A A115G A120U | -4.05
A21C A28G C38U C114G C125A | ≤ -4.2
A20C C96U A98C G100A | ≤ -4.2
A20U A47U G70C G80C C85G C93A C108U A122G U144G | ≤ -4.2
A19U U45A U101G C131G | ≤ -4.2
A20G G74U A89U A122G | ≤ -4.2
A20U A28U A30U G42C G86A A91U U101G C123A U146G | ≤ -4.2
A20C G50C U55G C105U | ≤ -4.2
A20G A23G A49U C75U C103G A113G | ≤ -4.2
A20G U33A U55G C87A G140C | ≤ -4.2

Variant | polymerase ribozyme fitness (log ratio)
A20G A21U A49U U53G C85A C87G C118U | ≤ -4.2
A20G C27G G42C G58C G68A A121C C125U G140A | ≤ -4.2
A20C A29G C43G C69U A73G C96G A107U | ≤ -4.2
A20G C38A C95U C125U G140C | ≤ -4.2
A20U A137C | -3.99
A19U U44A A47C G58C G83A | ≤ -4.2
A20G U61A U109G A110G | ≤ -4.2
A20G C35G A49C A64G G100C U109C A113G U144G U151G | ≤ -4.2
A20U G62A C87A U135C | ≤ -4.2
A20C C75G G84C C87U U101G C123U C131A | ≤ -4.2
A20G C51U A52U A66U C132U | ≤ -4.2
A20C A73G C85G C96A G141C | ≤ -4.2
A20C A52U G67C G88C | ≤ -4.2
A20C A39C A73G G83A A91U G140U U145C | ≤ -4.2
A20C A28C G48C U53G C75G C93A | ≤ -4.2
A20U C35A G83C | ≤ -4.2
A20U A30G C38U G59C A60C A73U G92U | ≤ -4.2
A20C C79A U82C A107C | ≤ -4.2
A20C G83U A97G U151A | ≤ -4.2
A20G A24U A37G A52U C57G C96G | ≤ -4.2
A20G U33G A49G C75A G94A A147G | ≤ -4.2
A20U A52G C96A G143A U148G | ≤ -4.2
A19U U31C U53G C95U C108G | ≤ -4.2
A20C C87A | ≤ -4.2

Variant | polymerase ribozyme fitness (log ratio)
A20C C87U | -1.36
A19U U44G U77C C93U G117A A138C U145G U151A | ≤ -4.2
A20U U44A C93U G117A C118G G133A U139C | ≤ -4.2
A20G A40G C51A U55A A89C C118A | ≤ -4.2
A20C G48U G59A A119U U135A U146C | -2.07
A20C A22U G34A A47C C96U A142U | ≤ -4.2
A20C C36U A73G C85A G140C A142G C149A | ≤ -4.2
A20G A22U C87A C116U C132U | ≤ -4.2
A20U A21U U53A A60C G62U A73G C99U A110G U148A | ≤ -4.2
A20U U45A G124A | -3.98
A20C A28C A37U G42U G71A C85U C99G A106G C131G | ≤ -4.2
A20U G59A C93A | -4.07
A20U G59A G88A C95G U151A | ≤ -4.2
A20U C57G C85A G94A C131A U139C | ≤ -4.2
A20U C27U C76U C85U A97U C108A | ≤ -4.2
A20G G46A U146A | -1.3
A21C A26C A41C C75U U90G C99U G136A | ≤ -4.2
A20C A23U A29C A41C G48C A49U G86A C87G A110C C131G G152U | ≤ -4.2
A20U G42U C54G C76A G80A C93A C125U | ≤ -4.2
A20G C51U U90G G117A G124A G143A | ≤ -4.2
A20U C54A G92U | -3.48
A20G U45A C63U G84A U145G | ≤ -4.2
A20U C38G C87A G124U | ≤ -4.2
A20G G46U G92U | -0.107

Variant | polymerase ribozyme fitness (log ratio)
A20U A60C A73G | -2.81
A20U G50A G86U | ≤ -4.2
A19U U53A G62C C85U U101G U146A | ≤ -4.2
A20C C57G A60G C96A C114U C125U | ≤ -4.2
A20C C27G G58C C103G G143U | ≤ -4.2
A19U U44A U53A A73U C85U G136A | ≤ -4.2
A20C A23U A39C C96U C125U | ≤ -4.2
A20U C57U C76G C85U U101G A147U | ≤ -4.2
A20C A26C C57G G136U A138C | ≤ -4.2
A20G A40C U55A U61A G71C | ≤ -4.2
A20G A21C G92A C108G | ≤ -4.2
A20G C36G G59C G94A A142U | ≤ -4.2
A20C C51A C87U A89C A119U C149G | ≤ -4.2
A20U C32G G59U C75U G86U G143C | ≤ -4.2
A20C G80U C87A G141U | ≤ -4.2
A20U C76A G83C G141U | ≤ -4.2
A20U G133C U148A | ≤ -4.2
A20G A21C U53G U102G A106C C129A | ≤ -4.2
A20G A23C C51A C76G G94U | ≤ -4.2
A20U G42C C93A G112U C125U | ≤ -4.2
A20U A26G A150C | ≤ -4.2
A20U A24U C27U C75G C93A U148G U151A | ≤ -4.2
A20U A26U C38A C93A G94C U135A C149A | ≤ -4.2
A20U C54A U56A G84C G86C C96U G117C A122U U144A A150G | ≤ -4.2

Variant | polymerase ribozyme fitness (log ratio)
A20G G58A A60U C85A U151C | ≤ -4.2
A20C C43U U61A C99U C118G U151A | ≤ -4.2
A20C A52G A142G | -2.02
A20C A49G C51U A106G C123A G140U | ≤ -4.2
A20C G94U G152C | -2.76
A20U G88A A113G U127G G143C | ≤ -4.2
A21C A29U A41C U77G C87G A119G | ≤ -4.2
A20G G25U A28U A29C C32G C54A A60G G84A G92U | ≤ -4.2
A20U U33G G81A C93U C125U A142C | ≤ -4.2
A20U U33G G81A G84C A98G G152U | ≤ -4.2
A20U C85G | -3.35
A20U A22U C57A C96G C125U | -3.05
A20U A23C A41G U55A C75G | ≤ -4.2
A21C A23G A39G G81C A97U U101G | ≤ -4.2
A20C A21U G25C A41C A60C C69G C85A C108A C118A | ≤ -4.2
A20G C85A | -2.13
A20G C27G A47U A97G A115G G124C G136C U144C | ≤ -4.2
A21C A26C C27U U44G A52G G58C U90A G92A G100U | ≤ -4.2
A20U G83A C99U A137C | ≤ -4.2
A20G G46A U55G G70A C76U G84A C96U C103G C114U G152U | ≤ -4.2
A20U G50C G58U C79G G84U U90G A107G C108G | ≤ -4.2
A20C G83A C85A | ≤ -4.2
A20U G67U A97U C132G | ≤ -4.2
A20U A41U C63A A106G U145A | -2.83

Variant | polymerase ribozyme fitness (log ratio)
A20U A47U G68A G83U C87U U130C G140A | ≤ -4.2
A20G C96U | -0.654
A20C U55G G88U C96U C114G U135C | ≤ -4.2
A20C C103G | -1.28
A20U A26G C27A C36U C93U A147U | ≤ -4.2
A20U A29U C38G U56A C72U A89U C95A A97G | ≤ -4.2
A20G A23U A52G G58C C85U A137U | ≤ -4.2
A20U A60C U77G G88A G92A C95A U101A U146C | ≤ -4.2
A20U G74A | ≤ -4.2
A20U A29G C96A A106U | ≤ -4.2
A20C G34U A47U G48U A60U U77C G88A C93G A115G A137U | ≤ -4.2
A20G A52U U53G G86A C96U U135A | ≤ -4.2
A20U C54G A66U C85U | ≤ -4.2
A20U A24C G84U G100C A142C A147C U148C | ≤ -4.2
A20C A26G A29G G48A C99U A119C U134G | ≤ -4.2
A20G C35U A40U G74A G94C A107C C129G U130A | ≤ -4.2
A20C A24G A40C C69A C75G C87U G88C U102C G124A G133C U135C A147C | ≤ -4.2
A20U G48C C57G G128A | ≤ -4.2
A21C A23G C85G G141C | -3.89
A20U U53A C103G | ≤ -4.2
A20C A22C C43U G83C | ≤ -4.2
A20U G42C U55C G68C A119G A150G | ≤ -4.2
A20G C35U U55G C95U A107C G124U U146A | ≤ -4.2
